# Experimental data: the BET-seq Pho4 binding data (Le et al. 2018)
# The list shows a part of the results. These are noisy estimates, calculated here from bound and input reads.
# Target: T1, Pho4 (S. cerevisiae) (UniProt P07270)
# T1 sequence: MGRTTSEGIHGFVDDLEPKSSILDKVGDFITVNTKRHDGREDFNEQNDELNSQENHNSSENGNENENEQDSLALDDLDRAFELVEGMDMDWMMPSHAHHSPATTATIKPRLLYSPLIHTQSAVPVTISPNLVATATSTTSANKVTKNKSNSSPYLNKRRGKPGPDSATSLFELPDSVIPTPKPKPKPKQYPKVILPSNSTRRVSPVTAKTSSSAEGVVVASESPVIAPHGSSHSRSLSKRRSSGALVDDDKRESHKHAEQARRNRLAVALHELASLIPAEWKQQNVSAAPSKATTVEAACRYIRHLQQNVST
# Assay: relative binding free energy (BET-seq); higher = weaker binding
# Settings: reference: library average
row,Sequence,relative binding free energy [kcal/mol]
1,GGGCTCACGTGAGGGC,0.33
2,GTTAGCACGTGATAGG,0.11
3,TGGAGCACGTGAGTGA,0.16
4,TTCAGCACGTGGGTGC,-0.15
5,GAGTGCACGTGTTGGT,0.05
6,GGAGACACGTGTGCGG,-0.02
7,GAGAGCACGTGGCTGG,-0.11
8,AGGAGCACGTGAAAGT,0.21
9,ATTCGCACGTGGTTTT,-0.08
10,GCAAGCACGTGGTAGG,-0.16
11,TCCTTCACGTGGTTGA,0.4
12,TTGAGCACGTGCTTGG,-0.05
13,AGCGGCACGTGGTATT,-0.24
14,GTCGACACGTGGGCGG,-0.04
15,TATGACACGTGATATG,0.22
16,ACATGCACGTGGGGTC,-0.14
17,GTCAGCACGTGGTATG,-0.15
18,AATGACACGTGGGCTG,-0.12
19,GGAGTCACGTGGCAGT,0.06
20,ATGGTCACGTGGGTTG,-0.03
21,TCGCGCACGTGTTTTG,0.05
22,TTTTTCACGTGTCGGC,0.33
23,TGGATCACGTGATTAG,0.31
24,AGCGTCACGTGTTTTA,0.05
25,AGATTCACGTGCCGGG,0.3

row,Sequence,relative binding free energy [kcal/mol]
1,ATGGACACGTGTTTTT,0.06
2,GGGATCACGTGGTTAG,0.01
3,TTTAGCACGTGAAATG,0.26
4,TTGAGCACGTGGGGCT,-0.17
5,AATCGCACGTGAATGG,0.3
6,ATTATCACGTGGAGTG,0.08
7,GTTGTCACGTGGGCTG,-0.07
8,TTCTTCACGTGGAGTG,0.21
9,GCATGCACGTGTGGGG,-0.02
10,TAGTACACGTGTATCG,0.16
11,AAGAGCACGTGTGGAT,-0.12
12,AGGTTCACGTGAAAAG,0.55
13,GGAATCACGTGTGTAT,0.16
14,TTGTTCACGTGCCAGG,0.11
15,CGGTCCACGTGTTGAG,0.09
16,CTATTCACGTGTTCGG,0.28
17,GTAAACACGTGTTGCT,0.05
18,CAGGGCACGTGATCGG,-0.09
19,ATGAGCACGTGTGATG,-0.22
20,GGCGGCACGTGTACGG,0.07
21,GTTCACACGTGGGTAA,-0.07
22,TGGTGCACGTGGAGTT,0.14
23,AGTTGCACGTGGAGGA,0.02
24,TGTGGCACGTGCTGCT,-0.23
25,TTTTCCACGTGTAAGG,0.1

row,Sequence,relative binding free energy [kcal/mol]
1,TGAGTCACGTGTGAGC,0.2
2,TTATTCACGTGATCGT,0.24
3,TTCTCCACGTGTTTTT,0
4,AGGGACACGTGGGCCT,-0.12
5,TGTAACACGTGTCTGG,-0.03
6,GATGTCACGTGAGTTC,0.29
7,TTTCGCACGTGTAAGG,0.14
8,TGGGTCACGTGAAGAC,0.37
9,CGTTGCACGTGCTGTT,-0.11
10,TGCTGCACGTGGGCGT,-0.12
11,GTTAACACGTGGACGG,0.27
12,TTGTCCACGTGTTGTA,-0.08
13,CGTAACACGTGTGAGT,0.11
14,TTGAGCACGTGTCGGT,-0.12
15,TTTCTCACGTGTGGTC,0.17
16,TAAATCACGTGGGGCG,0.08
17,TTACACACGTGTTAGG,0.11
18,GATGTCACGTGAAGGT,0.3
19,TTGTTCACGTGTGCAA,0.32
20,AAGTTCACGTGTAGAT,0.42
21,TGTAACACGTGACAGG,0.26
22,GATTTCACGTGAAGTG,0.43
23,CTGCTCACGTGGGGGC,0.02
